# From PubChem BioAssay AID1346428 (National Center for Advancing Translational Sciences (NCATS), 2018)
# Several values for one entry are separate records, joined by “and”; a condition that tells them apart may be missing. Identical values can stand only once. The campaign covered roughly 48,000 compounds. About 1,200 (2.5%) were called active. Another 2% or so got no clear call; they are omitted.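 How the source made its calls: active means activation of at least 60% and not above a set upper limit (about 1 call in 100 departs from these limits); inconclusive means activation of 40% to 60%, or above that upper limit; inactive means activation under 40%.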 This is one part of the list.
# Target: Probable G-protein coupled receptor 32 (Homo sapiens) (UniProt O75388)
# Sequence of UniProt O75388 (O75388 whole entry, looked up): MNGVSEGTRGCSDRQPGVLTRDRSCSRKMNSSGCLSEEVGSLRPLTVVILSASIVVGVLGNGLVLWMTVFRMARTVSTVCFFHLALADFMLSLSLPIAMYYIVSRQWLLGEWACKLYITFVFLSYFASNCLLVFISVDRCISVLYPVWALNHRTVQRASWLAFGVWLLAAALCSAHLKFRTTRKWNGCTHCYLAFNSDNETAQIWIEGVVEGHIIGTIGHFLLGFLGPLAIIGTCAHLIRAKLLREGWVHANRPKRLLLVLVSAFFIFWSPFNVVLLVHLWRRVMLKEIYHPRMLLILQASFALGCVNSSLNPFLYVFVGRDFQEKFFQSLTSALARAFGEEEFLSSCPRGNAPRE
# Experiment: qHTS for Agonists of Human Resolvin D1 Receptor DRV1
# Conditions: CHO-K1 GPR32 beta-arrestin PathHunter luminescence, 90 min; at 76.9 µM; hits give high values; zero percent set by DMSO-only wells
# Outline: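 Using DMSO wells as EC0, agonist-induced signal was taken as chemiluminescence from beta-Gal reconstituted upon beta-arrestin recruitment to GPR32 in CHO-K1 cells after 90 min compound treatment.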
row,SMILES,activation
1,Cc1cc(C)cc(Nc2sc(C(=O)c3ccccc3)c(N)c2S(=O)(=O)c2ccccc2)c1,inactive: -7.37%
2,CCOC(=O)c1c(C)oc2nc(C)nc(NCc3ccccc3OCC)c12,inactive: -14.3%
3,CCOC(=O)c1ccc(NC(=O)C(Cc2ccccc2)NS(=O)(=O)c2ccc(Br)s2)cc1 (centres undefined),inactive: 14%
4,CCCc1nc2ccccc2n2c(-c3cccc(C)c3)c3c(=O)n(C)c(=O)n(C)c3c12,inactive: -17.6%
5,O=C(NCc1ccccc1Cl)C1CCCN(c2ncnc3onc(-c4ccc(F)cc4)c23)C1 (centres undefined),inactive: -18%
6,Cn1c(=O)c2c(nc(NCc3ccccc3)n2Cc2ccccc2Cl)n(C)c1=O,inactive: 4.54%
7,O=C(C1CC1)N1CCN(c2nc3ccc(F)cc3s2)CC1,inactive: -2.02%
8,CN(C)S(=O)(=O)c1ccc2c(c1)nnn2CCNC(=O)Nc1ccc(Br)cc1,inactive: 1.99%
9,COc1cccc(OCc2nc3ccccc3n2CCOc2ccccc2C)c1,inactive: -28.7%
10,CCCCOc1ccc(CNC(=O)c2cnc3sc(N4CCOCC4)nn3c2=O)cc1,inactive: -10.3%
11,CCOC(=O)C(C)Oc1cccc2c(=O)n(CC(=O)Nc3ccc4c(c3)OCCO4)ccc12 (centres undefined),inactive: 15.1%
12,O=C(CCn1ccc2cc(S(=O)(=O)N3CCCC3)ccc21)NCc1cccc(Br)c1,inactive: -25.8%
13,Cn1nnc2c(C(N)=O)ncn2c1=O,inactive: -4.58%
14,COc1ccc(CCNC(=O)CCCCn2c(=O)c3ccccc3n(Cc3ccc(F)cc3Cl)c2=O)cc1OC,inactive: -4.94%
15,Cc1ccc(C(=O)NCC(c2cccnc2)N2CCc3ccccc32)cc1C (centres undefined),inactive: -31.8%
16,Cc1ccc(-c2nc3ncccc3o2)cc1NC(=O)c1cccc(OCC(C)C)c1,inactive: 18.6%
17,Cc1ccc(C)c(Nc2nn3c(=O)c4ccc(C(=O)NC5CCCCC5)cc4nc3s2)c1,inactive: 11.4%
18,Cc1c(C)n(Cc2ccccc2)c2ccc(C(=O)NCc3ccco3)cc12,inactive: -20.9%
19,Cc1cc(NC(=O)c2cc(-c3ccc(Cl)cc3)on2)nn1Cc1ccc(Cl)cc1,inactive: 4.03%
20,CCC1CN(C(=O)Nc2cc(C)cc(C)c2)c2ccccc2O1 (centres undefined),inactive: -35.2%
21,CCc1ccc(NC(=O)Cn2c(=O)n(CCC(=O)NCc3ccc4c(c3)OCO4)c(=O)c3ccccc32)cc1,inactive: -4.89%
22,Cc1c(-c2nsc(NC(=O)c3cccs3)n2)nnn1-c1ccc(Br)cc1,inactive: -6.68%
23,Cc1cccc(CN2CCc3nc(N4CCN(c5ccccn5)CC4)ncc3C2)c1,inactive: 13.2%
24,O=C(NCc1ccccc1Cl)c1ccc2c(O)c(S(=O)(=O)c3ccccc3)c(=O)[nH]c2c1,inactive: 5.16%
25,Cc1ccc(CNC(=O)CN2C(=O)C3CCCCN3c3ccc(C(=O)N4CCCC4)cc32)cc1 (centres undefined),inactive: -24.1%
26,O=C(NCCSc1c(-c2ccc(F)cc2)[nH]c2ccccc12)c1ccc(S(=O)(=O)N2CCOCC2)cc1,inactive: -20%
27,COc1cccc(NC(=O)C2CCN(C(=O)N3CC(C)Oc4ccccc43)CC2)c1 (centres undefined),inactive: -4.42%

row,SMILES,activation
1,COc1cccc(Cn2c(=O)n(-c3ccccc3C)c(=O)c3c2c2cc(C)ccc2n3C)c1,inactive: -5.26%
2,Cc1cccc(Cc2c(C)nc3nc(SCc4ccccc4C)nn3c2C)c1,inactive: -19.9%
3,Cc1ccc(C)c(NC(=O)CN(CCc2ccccc2)S(=O)(=O)c2ccccc2)c1,inactive: 17.3%
4,COc1cccc(-n2c(SCc3ccccc3C)nc3c([nH]c4ccccc43)c2=O)c1,inactive: -15.4%
5,CC(=O)c1ccc(NC(=O)CCc2c(C)nc3cc(-c4ccc(Cl)cc4)nn3c2C)cc1,inactive: 24%
6,CC1=C(C(N)=O)C(c2cccc(F)c2)n2nc(SCc3ccccc3)nc2N1 (centres undefined),inactive: -4.36%
7,O=c1cc(-c2ccccc2)n2c(SCc3ccc([N+](=O)[O-])cc3)nnc2[nH]1,inactive: 4.24%
8,COC(=O)c1ccccc1NC(=O)c1ccc2c(c1)CCN2S(=O)(=O)c1ccc(C)cc1,inactive: -3.76%
9,O=C(O)Cn1nc(N2CCN(c3ccc(F)cc3)CC2)ccc1=O,inactive: 4.6%
10,CCc1ccc(C(=O)c2cnc3ccc(C)cc3c2S(=O)(=O)c2ccc(OC)cc2)cc1,inactive: -19%
11,COc1ccccc1CNC(=O)c1cc(Sc2cccc(Cl)c2)nc2ccccc12,inactive: -32.5%
12,COc1cc(OC)c(NC(=O)C2=C(C)C(=O)OC23CCCCC3)cc1Cl,inactive: -18.2%
13,O=C(CCCn1c(=O)c2sccc2n(Cc2ccc(F)cc2Cl)c1=O)NCc1ccc2c(c1)OCO2,inactive: -18.4%
14,CCCN(CC1CC1)c1nc(C)nc(Nc2c(Cl)cc(Cl)cc2Cl)c1Cl,inactive: -13.9%
15,COc1ccc2cc(CNc3ccc(C)cc3)c(=O)n(CC(=O)Nc3ccc(OC)c(Cl)c3)c2c1,inactive: -35.1%
16,CCCCc1ccc(C(=O)Nc2ccc3nc(N(CC)CC)cc(C)c3c2)cc1,inactive: -5.05%
17,Cc1c(C(=O)N2CCCC2)oc2c1-c1nn(CC(=O)NCc3cccc(F)c3)cc1CC2,inactive: -3.73%
18,Cc1ccc2c(c1)N(C(=O)N1CCC(C(=O)NCCC3=CCCCC3)CC1)CC(C)O2 (centres undefined),inactive: -14.6%
19,CCNC(=O)c1cnc2sc(N3CCC(C)CC3)nn2c1=O,inactive: 12.2%
20,NC(=Nc1ccccc1)Nc1ccccc1,inactive: -18.1% and inactive: -43.4%
21,O=C(Nc1cccc(Cl)c1)c1ccc2nc(Cc3ccccc3)oc2c1,inactive: 21.9%
22,OCc1cnc(SCc2cccc(F)c2)n1Cc1ccc(F)cc1,active: 88.6%
23,O=C(CCc1nc2cccnc2n1Cc1ccccc1)NCc1cccc(Cl)c1,inactive: -12.2%
24,Cc1ccccc1Nc1ncnc2c1c(-c1ccccc1)cn2-c1ccc(F)cc1,inactive: -38.6%
25,CCOc1ccc(CCNc2ncnc3onc(-c4ccc(F)cc4)c23)cc1OCC,inactive: 1.12%
26,CCCCn1c(CNC(=O)C23CC4CC(CC(C4)C2)C3)nnc1SCC(=O)Nc1ccccc1,inactive: -0.346%
27,Cc1ncc(COC(=O)C(C)C)c2cc(C(=O)Nc3ccccc3C(F)(F)F)c(=O)oc12,inactive: -15.2%
